Experimental data taken from PubChem BioAssay (NCATS).
Inconclusive results, whose numbers are uncertain, are shown with a selection of clear calls. For some of these results: Where the call is inconclusive, the potency comes from a doubtful curve fit. Activity calls are given as the source filed them. Calls follow the shape of the dose curve; as a rule, active = well fitted curve in the direction sought with a large enough effect; inconclusive = small, poorly fitted or top-dose-only effect, or another doubt; inactive = no such curve, though single readings can be large; an effect the other way counts as inactive or inconclusive.

Columns and labels:
[1] = target: DNA repair nuclease/redox regulator APEX1 (Homo sapiens) (UniProt P27695); experiment: qHTS FP-Based Assay for Inhibitors of the Human Apurinic/apyrimidinic Endonuclease 1 (APE1) (AID 2573); also: potency is read from the fitted curve at half-maximal effect
[2] = target: Lethal(3)malignant brain tumor-like protein 1 (Homo sapiens) (UniProt Q9Y468); experiment: qHTS Assay for the Inhibitors of L3MBTL1: Hit Validation (AID 540279); conditions: L3MBTL1 methyl-lysine binding inhibition, biochemical qHTS; also: potency is read from the fitted curve at half-maximal effect; nearly all actives have a fitted effect of over 70% in size
Method in brief: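 AlphaScreen displacement: 50 nM L3MBTL1 bound to 75 nM biotin-H3K9me1 peptide for 30 min, compound added for 30 min at room temperature, then beads at 10 ug/mL final for 30 min in the dark. Cefsulodin titration served as intraplate control.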

[3] = qHTS Assay for the Inhibitors of L3MBTL1: Hit Validationin AlphaScreen Counterscreen (AID 602224); conditions: signal inhibition; also: potency is read from the fitted curve at half-maximal effect
Method in brief: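 No MBT protein present; 1 nM b-His6 links SA-donor/Ni-acceptor beads (10 ug/mL each). Cpd + peptide 15 min RT, beads 30 min RT dark, AlphaScreen luminescence.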

[4] = target: Rap guanine nucleotide exchange factor 3 (Homo sapiens) (UniProt O95398); experiment: Confirmatory qHTS for antagonist of cAMP-regulated guanine nucleotide exchange factor 3 (EPAC1) (AID 1645880); also: potency is read from the fitted curve at half-maximal effect; nearly all actives have a fitted effect of over 55% in size
Method in brief: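 Released BODIPY-GDP fluoresces less than Rap1-bound BODIPY-GDP; the signal is followed at 480/540 nm at 5-min intervals over 30 min, after 5 min at room temperature. Reactions contain 100 nM EPAC1, 250 nM RAP1B-BODIPY-GDP and 50 uM GDP; results are normalized to ATA and DMSO.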

[5] = target: Rap guanine nucleotide exchange factor 3 (Homo sapiens) (UniProt O95398); experiment: Counterscreen qHTS for agonist of cAMP-regulated guanine nucleotide exchange factor 3 (EPAC1) (AID 1645889); conditions: EPAC1 Rap1B-BODIPY-GDP exchange, fluorescence; activation: at 154 µM (top of the series) unless noted; also: nearly all actives have a fitted effect of over 40% in size; also: potency is read from the fitted curve at half-maximal effect; as to activation: % of control where 0% means no effect
Method in brief: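 Rap1B-BODIPY-GDP 250 nM + GDP 50 uM; cpds 7-pt, final 9.74 nM–152 uM (activator mode) or from 7.32 nM upwards (inhibitor mode); RT; FI 480/540 nm at 5 and 30 min, then ± cAMP, reread.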

[6] = Counterscreen for APE1 Inhibitors: Fluorescent Dye Displacement Assay (AID 2564);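 also: loss of thiazole orange fluorescence as the dye is displaced from duplex DNA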; also: potency is read from the fitted curve at half-maximal effect;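 as to activity change, negative = inhibition: 0% = ThO with dsDNA and no compound and -100% = ThO without dsDNA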
Method in brief: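 Signal: ThO fluorescence (ex 480 nm/em 540 nm) on binding 50 nM dsDNA; displacement by test compound reduces it. Conditions: 250 nM dye, 50 mM Tris-HCl pH7.5, 2 mM MgCl2, 50mM NaCl, 0.01% Tween-20.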

[7] = target: DNA repair nuclease/redox regulator APEX1 (Homo sapiens) (UniProt P27695); experiment: Confirmation qHTS Assay for Inhibitors of the Human Apurinic/apyrimidinic Endonuclease 1 (APE1) (AID 2572); also: potency is read from the fitted curve at half-maximal effect; nearly all actives have a fitted effect of over 30% in size
Method in brief: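 Inhibition is measured on a short double-stranded THF-site oligo, 50 nM final, whose incision relieves BHQ-2 quenching of TAMRA. After 15 min enzyme–compound preincubation at RT, three reads a minute apart are taken.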

[8] = target: Tyrosyl-DNA phosphodiesterase 1 (Homo sapiens) (UniProt Q9NUW8); experiment: Confirmation Assay for Inhibitors of Tyrosyl-DNA Phosphodiesterase (TDP1) (AID 489007); conditions: recombinant human TDP1 enzymatic activity, dose-response; also: potency is read from the fitted curve at half-maximal effect; nearly all actives have a fitted effect of over 40% in size
Method in brief: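 AlphaScreen read-out: streptavidin donor and anti-FITC acceptor beads (10 ug/ml) bind intact substrate, so Tdp1 removal of tyrosine-FITC lowers signal. Enzyme 1 nM, substrate 15 nM, 5 min reaction at room temperature after 15 min compound preincubation.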

[9] = target: DNA polymerase iota (Homo sapiens) (UniProt Q9UNA4); experiment: qHTS for Inhibitors of Polymerase Iota: Confirmatory Assay for Cherry-picked Compounds (AID 720496); conditions: Pol iota primer extension, TAMRA/BHQ fluorescence; also: potency is read from the fitted curve at half-maximal effect
Method in brief: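 Kinetic fluorescence, 0 → 10 min, ex 525/em 598 nm. Pol iota 10 nM, 15 min RT preincubation with compound, then 50 nM (final) TAMRA/BHQ-2 primer-template substrate.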

[10] = target: Vitamin D3 receptor (Homo sapiens) (UniProt P11473); experiment: qHTS for Inhibitors of the vitamin D receptor (VDR): Hit Validation using a Fluorescein Assay (AID 602200); also: potency is read from the fitted curve at half-maximal effect
Method in brief: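 Compounds added to VDR ligand-binding domain (1.5 uM) with agonist LG19078 (5 uM) and 5 nM SRC2-3 fluorescein peptide, final concentrations. After 2 h at ambient temperature, polarization of fluorescein emission (Ex 495 nm/Em 520 nm) measured.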

[11] = qHTS for Inhibitors of the vitamin D receptor (VDR): Hit Validation using a Texas Red Assay (AID 602201); also: potency is read from the fitted curve at half-maximal effect
Method in brief: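 After a 2-hour room-temperature incubation, polarization of Texas-Red emission was read (Ex 595 nm/Em 615 nm). Final mix contained 7 nM Texas Red, 1.5 uM VDR-LBD and LG19078.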

[12] = qHTS for Inhibitors of the vitamin D receptor (VDR): Hit Validation using a Cytotoxicity Assay (AID 602204);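 also: plate controls were DMSO for no effect and high-concentration cycloheximide for full effect; nearly all actives have a fitted effect of over 75% in size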
Method in brief: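 Plated cells (20,000/well) incubate 4 h, receive test compounds, and incubate 18 h more. A luminescent reagent measuring ATP from living cells is added and read after 30 min.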

[13] = target: Bifunctional 3'-5' exonuclease/ATP-dependent helicase WRN (Homo sapiens) (UniProt Q14191); experiment: qHTS for Inhibitors of WRN Helicase: Confirmatory Assay for Cherry-picked Compounds. (AID 720497); conditions: WRN helicase DNA unwinding, fluorescence kinetic; also: potency is read from the fitted curve at half-maximal effect; nearly all actives have a fitted effect of over 65% in size
Method in brief: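 Helicase activity is tracked as a kinetic fluorescence signal (excitation 525 nm, emission 598 nm) after 100 nM forked duplex DNA and 2 mM ATP are added to 20 nM WRN that has been preincubated 15 min with compound at room temperature.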

[14] = target: DNA polymerase eta (Homo sapiens) (UniProt Q9Y253); experiment: qHTS for Inhibitors of Polymerase Eta: Confirmatory Assay for Cherry-picked Compounds (AID 720502); conditions: Pol eta primer extension, TAMRA/BHQ fluorescence, 10 min; also: potency is read from the fitted curve at half-maximal effect
Method in brief: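 Pol eta 10 nM; substrate 50 nM final (unlabeled primer, TAMRA reporter, BHQ-2 template); preincub. 15 min RT; reads t=0 and t=10 min at ex525/em598.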

[15] = target: Rap guanine nucleotide exchange factor 4 (Homo sapiens) (UniProt Q8WZA2); experiment: Confirmatory qHTS for antagonist of cAMP-regulated guanine nucleotide exchange factor 4 (EPAC2) (AID 1645885); conditions: activity change, negative = inhibition: at 114 µM (top of the series) unless noted; also: nearly all actives have a fitted effect of over 25% in size; also: potency is read from the fitted curve at half-maximal effect; as to activity change, negative = inhibition: % is scaled to controls: 0 for no effect and ±100 for the full control effect
[16] = target: Vitamin D3 receptor (Homo sapiens) (UniProt P11473); experiment: qHTS for Inhibitors of the vitamin D receptor (VDR): Hit Validation using a Beta-Lactamase Assay (AID 602202); also: potency is read from the fitted curve at half-maximal effect
Method in brief: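 Beta-lactamase reporter read-out (447 nm emission of cleaved FRET substrate, 2 h) after 18 h compound exposure of HEK293 cells carrying a VDR-GAL4 fusion and UAS reporter, stimulated with LG190178.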

[17] = target: Flap endonuclease 1 (Homo sapiens) (UniProt P39748); experiment: qHTS Assay for the Inhibitors of FEN1: Confirmatory Assay for Cherry-picked Compounds (AID 720498); conditions: FEN1 flap cleavage, TAMRA/BHQ2 fluorogenic DNA substrate; also: potency is read from the fitted curve at half-maximal effect; nearly all actives have a fitted effect of over 60% in size
Method in brief: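 Human FEN1 (10 nM reagent) was preincubated with compounds for 15 min at room temperature, then 50 nM final double-flap DNA substrate (5'-TAMRA flap, BHQ-2 quencher strand) was added. Fluorescence (ex 525/em 598 nm) was read at 0 and 15 min.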
Tags tell the direction and shape of the fitted curve.

UniProt P11473, sequence (P11473 whole entry, looked up, the tested form may be a part): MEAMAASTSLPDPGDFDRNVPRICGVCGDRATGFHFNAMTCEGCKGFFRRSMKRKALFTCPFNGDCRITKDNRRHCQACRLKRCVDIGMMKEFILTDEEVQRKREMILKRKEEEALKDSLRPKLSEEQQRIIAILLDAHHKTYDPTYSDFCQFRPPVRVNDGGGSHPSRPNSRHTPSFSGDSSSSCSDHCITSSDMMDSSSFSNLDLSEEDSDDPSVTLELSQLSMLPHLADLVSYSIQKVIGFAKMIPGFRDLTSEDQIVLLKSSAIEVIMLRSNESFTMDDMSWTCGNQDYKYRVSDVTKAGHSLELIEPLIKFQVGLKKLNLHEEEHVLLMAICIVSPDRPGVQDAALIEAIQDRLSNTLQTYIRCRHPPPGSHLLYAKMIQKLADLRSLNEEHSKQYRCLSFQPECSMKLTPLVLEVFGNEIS
UniProt Q8WZA2, sequence (Q8WZA2 whole entry, looked up): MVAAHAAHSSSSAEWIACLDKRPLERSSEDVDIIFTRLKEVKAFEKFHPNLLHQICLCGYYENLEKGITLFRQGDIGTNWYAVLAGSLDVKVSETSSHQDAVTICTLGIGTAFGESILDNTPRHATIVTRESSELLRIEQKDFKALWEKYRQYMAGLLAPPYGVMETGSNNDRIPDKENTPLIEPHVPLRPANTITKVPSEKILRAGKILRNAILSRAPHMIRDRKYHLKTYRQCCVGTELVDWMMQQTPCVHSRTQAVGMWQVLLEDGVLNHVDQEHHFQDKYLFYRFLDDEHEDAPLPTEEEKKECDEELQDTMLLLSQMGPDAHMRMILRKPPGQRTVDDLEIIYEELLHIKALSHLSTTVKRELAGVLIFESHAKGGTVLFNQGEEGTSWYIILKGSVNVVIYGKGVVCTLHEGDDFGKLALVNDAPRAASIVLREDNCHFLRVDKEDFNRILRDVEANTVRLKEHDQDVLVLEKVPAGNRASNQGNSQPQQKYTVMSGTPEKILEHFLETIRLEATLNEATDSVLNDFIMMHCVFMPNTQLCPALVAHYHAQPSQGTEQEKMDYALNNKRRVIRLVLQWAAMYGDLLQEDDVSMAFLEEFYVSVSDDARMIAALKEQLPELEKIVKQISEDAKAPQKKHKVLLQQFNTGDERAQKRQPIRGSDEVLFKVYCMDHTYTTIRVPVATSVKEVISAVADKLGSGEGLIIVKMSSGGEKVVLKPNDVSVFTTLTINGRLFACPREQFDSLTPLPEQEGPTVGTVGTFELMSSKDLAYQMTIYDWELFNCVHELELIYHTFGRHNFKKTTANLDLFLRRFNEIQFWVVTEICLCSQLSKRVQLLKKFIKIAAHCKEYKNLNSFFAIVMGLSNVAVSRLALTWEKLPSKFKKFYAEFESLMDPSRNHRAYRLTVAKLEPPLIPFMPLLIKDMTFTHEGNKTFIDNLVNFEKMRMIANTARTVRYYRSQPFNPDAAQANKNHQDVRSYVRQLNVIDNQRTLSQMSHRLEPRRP
UniProt P27695, sequence (P27695 whole entry, looked up): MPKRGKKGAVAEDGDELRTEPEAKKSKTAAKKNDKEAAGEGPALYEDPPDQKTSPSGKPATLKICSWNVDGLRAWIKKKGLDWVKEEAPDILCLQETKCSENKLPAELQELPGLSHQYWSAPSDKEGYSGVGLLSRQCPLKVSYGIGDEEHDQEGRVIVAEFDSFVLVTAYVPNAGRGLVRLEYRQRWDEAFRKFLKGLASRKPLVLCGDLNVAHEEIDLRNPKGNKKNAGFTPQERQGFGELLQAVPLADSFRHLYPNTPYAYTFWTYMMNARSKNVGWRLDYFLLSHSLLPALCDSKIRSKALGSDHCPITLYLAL
UniProt Q9Y253, sequence (Q9Y253 whole entry, looked up): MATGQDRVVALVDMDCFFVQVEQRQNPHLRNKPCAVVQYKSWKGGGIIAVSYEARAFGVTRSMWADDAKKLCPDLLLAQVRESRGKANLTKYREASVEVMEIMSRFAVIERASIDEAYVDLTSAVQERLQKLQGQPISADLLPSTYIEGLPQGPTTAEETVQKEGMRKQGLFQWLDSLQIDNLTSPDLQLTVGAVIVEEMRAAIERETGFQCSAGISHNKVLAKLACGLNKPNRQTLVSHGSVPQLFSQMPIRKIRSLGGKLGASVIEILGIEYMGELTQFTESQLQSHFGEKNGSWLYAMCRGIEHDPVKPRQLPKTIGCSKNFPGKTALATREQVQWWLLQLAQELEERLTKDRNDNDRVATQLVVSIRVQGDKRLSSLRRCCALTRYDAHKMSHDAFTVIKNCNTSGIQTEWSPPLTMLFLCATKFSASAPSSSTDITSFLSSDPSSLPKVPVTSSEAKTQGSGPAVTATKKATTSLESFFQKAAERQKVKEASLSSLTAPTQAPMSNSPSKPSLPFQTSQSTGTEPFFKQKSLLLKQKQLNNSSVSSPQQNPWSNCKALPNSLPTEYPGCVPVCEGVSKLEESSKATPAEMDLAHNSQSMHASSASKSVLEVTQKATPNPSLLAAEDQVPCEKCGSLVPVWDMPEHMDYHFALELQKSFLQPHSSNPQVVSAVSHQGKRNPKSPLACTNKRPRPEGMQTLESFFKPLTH
UniProt O95398, sequence (O95398 whole entry, looked up): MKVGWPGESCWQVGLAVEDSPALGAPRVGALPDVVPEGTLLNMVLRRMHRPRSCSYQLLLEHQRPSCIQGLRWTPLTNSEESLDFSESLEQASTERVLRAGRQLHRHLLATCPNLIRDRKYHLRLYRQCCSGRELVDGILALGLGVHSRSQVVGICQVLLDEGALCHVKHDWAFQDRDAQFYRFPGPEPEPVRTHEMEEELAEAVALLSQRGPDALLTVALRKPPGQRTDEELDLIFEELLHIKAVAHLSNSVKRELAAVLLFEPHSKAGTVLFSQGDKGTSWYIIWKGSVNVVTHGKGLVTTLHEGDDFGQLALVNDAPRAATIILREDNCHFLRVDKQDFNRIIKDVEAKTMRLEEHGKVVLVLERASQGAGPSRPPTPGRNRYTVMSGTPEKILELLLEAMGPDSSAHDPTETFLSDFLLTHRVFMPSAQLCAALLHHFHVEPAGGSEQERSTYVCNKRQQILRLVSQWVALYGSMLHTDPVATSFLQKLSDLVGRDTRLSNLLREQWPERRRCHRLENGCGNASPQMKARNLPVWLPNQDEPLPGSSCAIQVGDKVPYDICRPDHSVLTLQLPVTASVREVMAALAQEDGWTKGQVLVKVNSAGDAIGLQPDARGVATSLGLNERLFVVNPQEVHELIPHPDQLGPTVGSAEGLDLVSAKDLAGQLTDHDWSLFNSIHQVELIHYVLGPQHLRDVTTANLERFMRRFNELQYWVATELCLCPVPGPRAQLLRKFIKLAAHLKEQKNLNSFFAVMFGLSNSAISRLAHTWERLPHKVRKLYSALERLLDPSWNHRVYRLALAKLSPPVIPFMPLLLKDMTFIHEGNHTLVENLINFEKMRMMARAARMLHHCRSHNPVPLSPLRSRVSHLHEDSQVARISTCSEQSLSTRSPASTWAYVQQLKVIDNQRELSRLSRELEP
UniProt Q14191, sequence (Q14191 whole entry, looked up): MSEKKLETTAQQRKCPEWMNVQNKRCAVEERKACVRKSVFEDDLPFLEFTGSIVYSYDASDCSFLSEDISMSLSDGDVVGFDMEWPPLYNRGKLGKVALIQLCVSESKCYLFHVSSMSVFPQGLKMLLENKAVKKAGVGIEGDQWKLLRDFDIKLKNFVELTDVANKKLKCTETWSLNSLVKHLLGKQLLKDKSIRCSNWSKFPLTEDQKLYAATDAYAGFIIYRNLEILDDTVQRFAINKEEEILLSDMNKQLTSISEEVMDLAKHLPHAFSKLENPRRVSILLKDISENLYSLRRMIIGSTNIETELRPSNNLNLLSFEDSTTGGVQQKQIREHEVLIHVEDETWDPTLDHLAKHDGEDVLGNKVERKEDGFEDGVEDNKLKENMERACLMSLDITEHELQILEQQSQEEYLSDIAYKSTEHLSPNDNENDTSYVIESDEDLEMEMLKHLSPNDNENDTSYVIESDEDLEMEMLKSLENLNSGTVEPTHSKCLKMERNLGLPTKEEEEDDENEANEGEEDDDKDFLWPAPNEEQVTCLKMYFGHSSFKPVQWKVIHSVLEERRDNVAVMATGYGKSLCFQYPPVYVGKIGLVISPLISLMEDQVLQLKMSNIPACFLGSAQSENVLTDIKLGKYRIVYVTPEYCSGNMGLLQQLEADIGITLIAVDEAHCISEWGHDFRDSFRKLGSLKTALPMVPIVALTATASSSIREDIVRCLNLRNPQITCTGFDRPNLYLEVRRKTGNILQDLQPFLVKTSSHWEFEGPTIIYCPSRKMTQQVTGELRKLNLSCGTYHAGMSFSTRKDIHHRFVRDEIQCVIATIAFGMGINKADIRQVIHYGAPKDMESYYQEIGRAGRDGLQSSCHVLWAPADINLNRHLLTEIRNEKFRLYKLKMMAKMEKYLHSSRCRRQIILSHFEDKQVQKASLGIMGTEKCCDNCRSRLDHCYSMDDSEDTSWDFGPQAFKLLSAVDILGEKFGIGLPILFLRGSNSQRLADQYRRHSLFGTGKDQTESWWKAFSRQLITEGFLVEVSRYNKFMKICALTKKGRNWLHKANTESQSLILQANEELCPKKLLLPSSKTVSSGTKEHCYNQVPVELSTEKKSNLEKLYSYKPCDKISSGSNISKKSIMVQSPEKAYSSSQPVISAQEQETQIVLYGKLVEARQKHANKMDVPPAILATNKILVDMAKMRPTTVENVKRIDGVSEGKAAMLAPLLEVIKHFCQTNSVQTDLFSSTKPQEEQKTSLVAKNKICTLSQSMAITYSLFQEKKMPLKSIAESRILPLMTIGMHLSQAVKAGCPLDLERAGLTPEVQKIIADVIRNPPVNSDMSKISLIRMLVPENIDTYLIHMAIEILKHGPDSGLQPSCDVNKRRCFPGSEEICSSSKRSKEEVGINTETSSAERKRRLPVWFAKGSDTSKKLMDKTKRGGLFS

Cc1cccc(OCCn2cccc2/C=C2/C(=O)NC(=O)N(Cc3ccco3)C2=O)c1
Potency [1]: inconclusive: 17.8 µM [inhibitor, partial curve, poor fit] | Potency [2]: inconclusive: 26.7 µM [inhibitor, single point] | Potency [3]: inconclusive: 37.7 µM [inhibitor, partial curve, poor fit] | Potency [4]: inconclusive: 21.3 µM [inhibitor, full curve] | Potency [5]: inconclusive: 25.1 µM [activator, partial curve, poor fit]

NC(=O)c1ccc(N=Cc2c(O)n(Cc3ccco3)c(=O)[nH]c2=O)cc1
Potency [6]: inconclusive: 17.8 µM [inhibitor, partial curve, poor fit] | Potency [7]: active: 39.8 µM | Potency [8]: active: 14.1 µM | Potency [9]: active: 29.9 µM | Potency [4]: inconclusive: 30.1 µM [inhibitor, partial curve]

COCCCn1c(N)c(C(=O)NCCC(C)C)c2nc3ccccc3nc21
Potency [4]: active: 56.2 µM | Potency [5]: inconclusive: 22.4 µM [activator, single point]

CCOC(=O)c1[nH]c2ccc(OC)cc2c1C(SCC(=O)O)c1ccc(C(F)(F)F)cc1 (stereo not given)
Potency [4]: inconclusive: 8.91 µM [inhibitor, partial curve, poor fit] | activation [5]: inconclusive: 35.2% [activator] [at 30.8 µM]

CC(=O)C1C2c3ccccc3O[C@@]1(C)N=c1s/c(=C/c3ccoc3)c(=O)n12 (stereo not given in full)
Potency [4]: inconclusive: 53.6 µM [inhibitor, partial curve, poor fit] | Potency [5]: inconclusive: 0.199 µM [activator, full curve, poor fit]

Cc1ccccc1N1C(=O)NC(=O)/C(=C\c2ccc3c(c2)CCCN3Cc2ccccc2)C1=O
Potency [10]: inactive | Potency [11]: active: 28.2 µM | Potency [12]: inactive | Potency [13]: inconclusive: 24.1 µM [inhibitor, partial curve] | Potency [14]: inconclusive: 84.9 µM [inhibitor, single point] | Potency [4]: active: 16.9 µM | Potency [15]: inconclusive: 95.3 µM [inhibitor, single point]

Cn1cccc1/C=C1\C(=O)NC(=O)N(Cc2ccccc2Cl)C1=O
Potency [13]: inconclusive: 24.1 µM [inhibitor, partial curve] | Potency [4]: inconclusive: 37.9 µM [inhibitor, partial curve] | Potency [15]: inactive | Potency [5]: inactive

COc1ccc(N2C(=O)/C(=C/C=C/c3ccccc3[N+](=O)[O-])C(=O)NC2=S)cc1
Potency [10]: inconclusive: 2.51 µM [inhibitor, partial curve, poor fit] | Potency [11]: inconclusive: 2.82 µM [inhibitor, partial curve, poor fit] | Potency [16]: inconclusive: 29.1 µM [inhibitor, single point] | Potency [12]: inactive | Potency [14]: inconclusive: 95.3 µM [inhibitor, single point] | Potency [4]: inconclusive: 39.8 µM [inhibitor, partial curve] | activity change, negative = inhibition [15]: inactive: 0.334% [at 12.7 µM]

COc1cc2c(cc1OC)-c1c(OC)c(OC)cc3c1[C@H](C2)N(C)CC3
Potency [4]: inconclusive: 35.5 µM [inhibitor, full curve] | Potency [5]: inconclusive: 28.2 µM [activator, partial curve, poor fit]

COc1cc(/C=C/c2nc3ccccc3c(=O)n2-c2cccc(O)c2)ccc1O
Potency [4]: inconclusive: 47.8 µM [inhibitor, partial curve] | activation [5]: inconclusive: 24.3% [activator]

Cc1cc(/C=C2\C(=O)NC(=O)N(Cc3ccccc3Cl)C2=O)c(C)n1-c1ccc(C(=O)O)cc1
Potency [6]: inactive | Potency [1]: inconclusive: 15.8 µM [inhibitor, single point] | Potency [8]: inconclusive: 2.24 µM [inhibitor, full curve, poor fit] | Potency [4]: inconclusive: 8.91 µM [inhibitor, full curve]

CCCCC/C(=N/O)c1c(C)[nH]c2ccccc12
Potency [4]: inconclusive: 47.8 µM [inhibitor, partial curve] | Potency [5]: inactive

Cc1ccc(OCCn2cccc2/C=C2/C(=O)NC(=O)N(Cc3ccco3)C2=O)cc1
Potency [14]: active: 67.5 µM | Potency [4]: inconclusive: 33.8 µM [inhibitor, partial curve] | Potency [5]: inconclusive: 20 µM [activator, full curve, poor fit]

Nc1cc(Cl)c2nonc2c1[N+](=O)[O-]
Potency [4]: inconclusive: 39.8 µM [inhibitor, partial curve] | Potency [5]: inconclusive: 3.55 µM [activator, partial curve, poor fit]

O=C1NC(=O)N(Cc2ccccc2)C(=O)/C1=C\C=C\c1ccco1
Potency [17]: inconclusive: 84.9 µM [inhibitor, single point] | Potency [14]: active: 75.7 µM | Potency [4]: inconclusive: 10 µM [inhibitor, full curve] | Potency [5]: inconclusive: 14.1 µM [activator, partial curve, poor fit]

CCCNC1=C(C)C(=O)C2=C(C1=O)C(COC(N)=O)[C@]1(OC)C3NC3CN21 (stereo not given in full)
Potency [4]: inconclusive: 37.9 µM [inhibitor, partial curve] | activation [5]: inconclusive: 36.6% [activator]
